Measurements taken from publication PMC10792917.
These are yes or no findings as the source states them, for the method shown. In cells and extracts the contact can be indirect. Some entries that bind do so weakly or less than the wild type.

Amino acid sequences for entries named in this document (tags omitted). Residues count along the entry.
UniProt P13726, residues 33-295: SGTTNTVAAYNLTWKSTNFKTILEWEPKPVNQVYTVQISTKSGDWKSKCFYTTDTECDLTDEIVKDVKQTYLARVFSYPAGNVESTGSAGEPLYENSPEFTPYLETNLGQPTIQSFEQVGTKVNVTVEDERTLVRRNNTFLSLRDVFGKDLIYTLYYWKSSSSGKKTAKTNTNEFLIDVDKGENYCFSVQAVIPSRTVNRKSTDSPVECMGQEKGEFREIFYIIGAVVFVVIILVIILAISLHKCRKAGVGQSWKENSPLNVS
UniProt Q96QZ7: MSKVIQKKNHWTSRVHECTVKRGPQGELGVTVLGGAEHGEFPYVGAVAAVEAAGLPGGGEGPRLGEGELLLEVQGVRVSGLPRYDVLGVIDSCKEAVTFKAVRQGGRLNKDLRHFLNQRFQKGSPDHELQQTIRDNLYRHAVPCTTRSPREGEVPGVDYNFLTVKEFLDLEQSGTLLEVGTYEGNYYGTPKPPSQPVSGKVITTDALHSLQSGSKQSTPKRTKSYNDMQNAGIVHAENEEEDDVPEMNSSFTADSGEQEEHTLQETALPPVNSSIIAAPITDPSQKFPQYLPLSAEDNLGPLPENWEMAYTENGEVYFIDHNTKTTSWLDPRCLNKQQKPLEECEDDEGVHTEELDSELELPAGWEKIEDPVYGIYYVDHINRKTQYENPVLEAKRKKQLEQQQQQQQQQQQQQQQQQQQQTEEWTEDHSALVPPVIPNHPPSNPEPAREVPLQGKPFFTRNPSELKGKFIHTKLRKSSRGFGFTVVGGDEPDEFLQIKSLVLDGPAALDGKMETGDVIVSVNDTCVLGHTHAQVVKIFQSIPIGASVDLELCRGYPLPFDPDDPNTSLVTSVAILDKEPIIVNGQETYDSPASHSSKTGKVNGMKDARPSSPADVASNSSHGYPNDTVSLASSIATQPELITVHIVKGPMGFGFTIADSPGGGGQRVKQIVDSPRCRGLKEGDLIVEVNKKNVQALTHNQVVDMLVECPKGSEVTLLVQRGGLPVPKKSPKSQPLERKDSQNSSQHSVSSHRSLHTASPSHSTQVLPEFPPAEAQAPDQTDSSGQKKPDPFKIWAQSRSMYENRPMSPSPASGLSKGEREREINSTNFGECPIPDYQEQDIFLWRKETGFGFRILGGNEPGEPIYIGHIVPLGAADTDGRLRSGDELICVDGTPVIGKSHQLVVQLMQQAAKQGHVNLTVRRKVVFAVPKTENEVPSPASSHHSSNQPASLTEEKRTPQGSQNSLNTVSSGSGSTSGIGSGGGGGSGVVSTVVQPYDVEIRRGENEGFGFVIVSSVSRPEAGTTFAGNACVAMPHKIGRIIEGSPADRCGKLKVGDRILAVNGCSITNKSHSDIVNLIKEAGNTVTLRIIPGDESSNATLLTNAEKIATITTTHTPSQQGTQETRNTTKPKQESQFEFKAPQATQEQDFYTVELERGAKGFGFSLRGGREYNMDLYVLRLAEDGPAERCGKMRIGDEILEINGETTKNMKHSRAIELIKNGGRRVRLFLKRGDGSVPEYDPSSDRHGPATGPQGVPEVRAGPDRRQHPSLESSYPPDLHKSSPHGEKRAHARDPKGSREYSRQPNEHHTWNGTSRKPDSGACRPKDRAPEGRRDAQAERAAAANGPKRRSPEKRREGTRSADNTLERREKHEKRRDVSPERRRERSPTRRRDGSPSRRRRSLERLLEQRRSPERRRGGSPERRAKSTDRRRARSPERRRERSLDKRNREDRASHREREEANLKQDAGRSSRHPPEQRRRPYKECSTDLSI
UniProt Q9H6Y5: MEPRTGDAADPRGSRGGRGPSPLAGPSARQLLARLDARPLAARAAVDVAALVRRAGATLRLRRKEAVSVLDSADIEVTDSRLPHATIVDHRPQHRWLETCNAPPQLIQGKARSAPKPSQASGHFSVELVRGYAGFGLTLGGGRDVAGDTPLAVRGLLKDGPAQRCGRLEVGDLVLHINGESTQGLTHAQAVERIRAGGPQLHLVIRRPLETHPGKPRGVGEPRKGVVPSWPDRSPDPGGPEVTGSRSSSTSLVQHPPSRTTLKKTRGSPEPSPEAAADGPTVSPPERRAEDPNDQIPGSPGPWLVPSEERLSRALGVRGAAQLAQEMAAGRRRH

T1: Scrambled peptide (biotin-…)
T1 sequence (peptide, biotin on the N-terminus): SWGNVSKLSAPRQGVNKE

B1: Rhophilin-1 (protein, UniProt Q8TCX5 1-670)
chain: MILEERPDGAGAGEESPRLQGCDSLTQIQCGQLQSRRAQIHQQIDKELQMRTGAENLYRATSNNRVRETVALELSYVNSNLQLLKEELEELSGGVDPGRHGSEAVTVPMIPLGLKETKELDWSTPLKELISVHFGEDGASYEAEIRELEALRQAMRTPSRNESGLELLTAYYNQLCFLDARFLTPARSLGLFFHWYDSLTGVPAQQRALAFEKGSVLFNIGALHTQIGARQDRSCTEGARRAMEAFQRAAGAFSLLRENFSHAPSPDMSAASLCALEQLMMAQAQECVFEGLSPPASMAPQDCLAQLRLAQEAAQVAAEYRLVHRTMAQPPVHDYVPVSWTALVHVKAEYFRSLAHYHVAMALCDGSPATEGELPTHEQVFLQPPTSSKPRGPVLPQELEERRQLGKAHLKRAILGQEEALRLHALCRVLREVDLLRAVISQTLQRSLAKYAELDREDDFCEAAEAPDIQPKTHQKPEARMPRLSQGKGPDIFHRLGPLSVFSAKNRWRLVGPVHLTRGEGGFGLTLRGDSPVLIAAVIPGSQAAAAGLKEGDYIVSVNGQPCRWWRHAEVVTELKAAGEAGASLQVVSLLPSSRLPSLGDRRPVLLGPRGLLRSQREHGCKTPASTWASPRPLLNWSRKAQQGKTGGCPQPCAPVKPAPPSSLKHPGWP

How the values were obtained:
[1] = target: Tissue factor (human (endogenous in MDA-MB-231)) (UniProt P13726); assay: proximity ligation; Duolink PLA in fixed, permeabilised MDA-MB-231 cells; mouse anti-TF (HTF1) with rabbit anti-MAGI1 (H-70), anti-MAGI2 or anti-MAGI3; resting cells and cells treated with PAR2-AP 20 uM up to 40 min (26% reduction of TF-MAGI1 proximity at 20 min; change not significant for MAGI2 and MAGI3)
[2] = target: Tissue factor (human (endogenous in MDA-MB-231)) (UniProt P13726); assay: co-IP; endogenous proteins from MDA-MB-231 lysate (PhosphoSafe reagent), antibody overnight at 4 C, protein A-magnetic beads, five washes with PBST, western blot; IP with anti-TF (HTF-1) or anti-MAGI1 (H-70), also studies with anti-MAGI2, anti-MAGI3, anti-MAGIX (D-18), anti-Rhophilin-1 (I-19); resting cells and cells treated with PAR2-AP 20 uM 20 min (33% less MAGI1 with TF; 19% less TF with MAGI1)
[3] = target: T1, Scrambled peptide (biotin-…); assay: pull-down; plate pull-down: biotinylated TF peptides (5 uM in PBS) bound to NeutrAvidin-coated 96-well plate; MDA-MB-231 lysate (from 2 x 10^5 cells) 1 h at room temperature; bound MAGI1 (H-70) or MAGI3 (46) detected with antibody and TMB at 450 nm; lysates of non-activated cells, and of PAR2-AP-activated cells up to 30 min (39% less MAGI1 on the non-phosphorylated peptide at about 20 min); only the target purified
[4] = target: Membrane-associated guanylate kinase with inverted configuration 1 (human (endogenous in MDA-MB-231)) (UniProt Q96QZ7); assay: co-IP; endogenous proteins from MDA-MB-231 lysate (PhosphoSafe reagent), antibody overnight at 4 C, protein A-magnetic beads, five washes with PBST, western blot; IP with anti-TF (HTF-1) or anti-MAGI1 (H-70), also studies with anti-MAGI2, anti-MAGI3, anti-MAGIX (D-18), anti-Rhophilin-1 (I-19); resting cells and cells treated with PAR2-AP 20 uM 20 min (33% less MAGI1 with TF; 19% less TF with MAGI1)

Molecule	binding [1]	binding [2]	binding [3]	binding [4]
Membrane-associated guanylate kinase with inverted configuration 1 (from UniProt Q96QZ7 1-1491)	binds	binds	no binding (tested: peptide coated at 5 µM)	–
MAGIX (from UniProt Q9H6Y5 1-334)	–	no binding	–	–
Tissue factor (from UniProt P13726 33-295)	–	–	–	binds
B1	–	no binding	–	–
